This assay deals with T1, MccE492–ManYZ (MceA–ManYZ) complex; man-PTS (Escherichia coli, UniProt P69801+P69805).
T1 construct: gene manY; ManY and ManZ co-expressed in E. coli with GST-MceA (Klebsiella pneumoniae RYC492, without siderophore); GST removed; MccE492:ManYZ 3:3 trimer; MccE492 S78-S84 not modelled; with Microcin E492
The assay is described as follows: cryo-EM structure, […] Å. The class given is binding. Particulars: bound in occluded conformation in the middle of the membrane, clamped by CoreY and CoreZ; complex with MccE492 (MceA).

Take `OC[C@H]1OC(O)[C@@H](O)[C@@H](O)[C@@H]1O` (stereo partly shown) [mannose]: the “cryo-EM structure, 2.28 Å” value was “In the MccE492–ManYZ structure, the mannose substrate is localized in the middle of the membrane”.
